Results: the supplement of paper PMC8728848
Some of the results follow.

Tests used:
Assay in all cases: glycan array binding signal (z-score within array); higher = stronger binding
Conditions in all cases: glycan notation: IUPAC condensed, linker removed
[1] = target: Fuc(a1-2)Gal(b1-4)GlcNAc(b1-3)Gal(b1-4)GlcNAc(b1-3)Gal(b1-4)GlcNAc
How it was run: (§1)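 Glycan array data were curated from 3228 arrays in the Consortium for Functional Glycomics database and kept only where the protein sequence was available. Glycan names were converted to IUPAC-condensed notation, and columns mapping to the same glycan were averaged. The binding signal is a within-array Z-score, averaged across arrays of the same protein sequence at different concentrations or buffers and across linkers. Negative Z-scores can be read as non-binding.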

[2] = target: Fuc(a1-2)Gal(b1-4)GlcNAc(b1-3)GalNAc
How it was run: as §1

[3] = target: Fuc(a1-2)Gal(b1-4)GlcNAc(b1-3)[Fuc(a1-2)Gal(b1-4)GlcNAc(b1-6)]GalNAc
How it was run: as §1

[4] = target: Fuc(a1-2)Gal(b1-4)GlcNAc(b1-3)[Fuc(a1-3)[Gal(b1-4)]GlcNAc(b1-6)]Gal(b1-4)Glc
How it was run: as §1

[5] = target: Fuc(a1-2)Gal(b1-4)GlcNAc(b1-6)GalNAc
How it was run: as §1

[6] = target: Fuc(a1-2)Gal(b1-4)GlcNAc6S
How it was run: as §1

[7] = target: Fuc(a1-2)Gal(b1-4)[Fuc(a1-3)]GlcNAc
How it was run: as §1

[8] = target: Fuc(a1-2)Gal(b1-4)[Fuc(a1-3)]GlcNAc(b1-2)Man(a1-3)[Fuc(a1-2)Gal(b1-4)[Fuc(a1-3)]GlcNAc(b1-2)Man(a1-6)]Man(b1-4)GlcNAc(b1-4)[Fuc(a1-6)]GlcNAc
How it was run: as §1

[9] = target: Fuc(a1-2)Gal(b1-4)[Fuc(a1-3)]GlcNAc(b1-2)[Fuc(a1-2)Gal(b1-4)[Fuc(a1-3)]GlcNAc(b1-4)]Man(a1-3)[Fuc(a1-2)Gal(b1-4)[Fuc(a1-3)]GlcNAc(b1-2)Man(a1-6)]Man(b1-4)GlcNAc(b1-4)GlcNAc
How it was run: as §1

[10] = target: Fuc(a1-2)Gal(b1-4)[Fuc(a1-3)]GlcNAc(b1-3)Gal(b1-4)[Fuc(a1-3)]GlcNAc
How it was run: as §1

[11] = target: Fuc(a1-2)Gal(b1-4)[Fuc(a1-3)]GlcNAc(b1-3)Gal(b1-4)[Fuc(a1-3)]GlcNAc(b1-3)Gal(b1-4)[Fuc(a1-3)]GlcNAc
How it was run: as §1

[12] = target: Fuc(a1-2)Gal(b1-4)[Fuc(a1-3)]GlcNAc(b1-3)GalNAc
How it was run: as §1

[13] = target: Fuc(a1-2)Gal(b1-4)[Fuc(a1-3)]GlcNAc(b1-3)[Neu5Ac(a2-6)Gal(b1-4)GlcNAc(b1-6)]Gal(b1-4)Glc
How it was run: as §1

[14] = target: Fuc(a1-2)Gal3S(b1-4)GlcNAc
How it was run: as §1

[15] = target: Fuc(a1-2)Gal6S(b1-3)GlcNAc
How it was run: as §1

[16] = target: Fuc(a1-2)Gal6S(b1-3)GlcNAc6S
How it was run: as §1

Fuc(a1-2)Gal6S(b1-4)Glc = target: Fuc(a1-2)Gal6S(b1-4)Glc
How it was run: as §1

[17] = target: Fuc(a1-2)Gal6S(b1-4)Glc6S
How it was run: as §1

Fuc(a1-2)[Gal(a1-3)]Gal = target: Fuc(a1-2)[Gal(a1-3)]Gal
How it was run: as §1

[18] = target: Fuc(a1-2)[Gal(a1-3)]Gal(b1-3)GalNAc
How it was run: as §1

[19] = target: Fuc(a1-2)[Gal(a1-3)]Gal(b1-3)GalNAc(b1-3)Gal(a1-4)Gal(b1-4)Glc
How it was run: as §1

[20] = target: Fuc(a1-2)[Gal(a1-3)]Gal(b1-3)GlcNAc
How it was run: as §1

[21] = target: Fuc(a1-2)[Gal(a1-3)]Gal(b1-3)GlcNAc(b1-2)Man(a1-3)[Fuc(a1-2)[Gal(a1-3)]Gal(b1-3)GlcNAc(b1-2)Man(a1-6)]Man(b1-4)GlcNAc(b1-4)GlcNAc
How it was run: as §1

[22] = target: Fuc(a1-2)[Gal(a1-3)]Gal(b1-3)GlcNAc(b1-2)Man(a1-3)[Fuc(a1-2)[Gal(a1-3)]Gal(b1-3)GlcNAc(b1-2)Man(a1-6)]Man(b1-4)GlcNAc(b1-4)[Fuc(a1-6)]GlcNAc
How it was run: as §1

[23] = target: Fuc(a1-2)[Gal(a1-3)]Gal(b1-3)GlcNAc(b1-3)GalNAc
How it was run: as §1

[24] = target: Fuc(a1-2)[Gal(a1-3)]Gal(b1-3)GlcNAc(b1-6)GalNAc
How it was run: as §1

[25] = target: Fuc(a1-2)[Gal(a1-3)]Gal(b1-4)Glc
How it was run: as §1

[26] = target: Fuc(a1-2)[Gal(a1-3)]Gal(b1-4)GlcNAc
How it was run: as §1

[27] = target: Fuc(a1-2)[Gal(a1-3)]Gal(b1-4)GlcNAc(b1-2)Man
How it was run: as §1

[28] = target: Fuc(a1-2)[Gal(a1-3)]Gal(b1-4)GlcNAc(b1-2)Man(a1-3)[Fuc(a1-2)[Gal(a1-3)]Gal(b1-4)GlcNAc(b1-2)Man(a1-6)]Man(b1-4)GlcNAc(b1-4)GlcNAc
How it was run: as §1

[29] = target: Fuc(a1-2)[Gal(a1-3)]Gal(b1-4)GlcNAc(b1-2)Man(a1-3)[Fuc(a1-2)[Gal(a1-3)]Gal(b1-4)GlcNAc(b1-2)Man(a1-6)]Man(b1-4)GlcNAc(b1-4)[Fuc(a1-6)]GlcNAc
How it was run: as §1

[30] = target: Fuc(a1-2)[Gal(a1-3)]Gal(b1-4)GlcNAc(b1-3)GalNAc
How it was run: as §1

[31] = target: Fuc(a1-2)[Gal(a1-3)]Gal(b1-4)GlcNAc(b1-3)[Fuc(a1-2)[Gal(a1-3)]Gal(b1-4)GlcNAc(b1-6)]GalNAc
How it was run: as §1

[32] = target: Fuc(a1-2)[Gal(a1-3)]Gal(b1-4)GlcNAc(b1-6)GalNAc
How it was run: as §1

[33] = target: Fuc(a1-2)[Gal(a1-3)]Gal(b1-4)[Fuc(a1-3)]Glc
How it was run: as §1

[34] = target: Fuc(a1-2)[Gal(a1-3)]Gal(b1-4)[Fuc(a1-3)]GlcNAc
How it was run: as §1

[35] = target: Fuc(a1-2)[Gal(a1-3)]Gal(b1-4)[Fuc(a1-3)]GlcNAc(b1-3)GalNAc
How it was run: as §1

B1: PX9961H-bth-557-24-557 (Bacteroides thetaiotaomicron) (protein)
chain: EETRTEVEKKNYMNNAEEAKDVLLGVYRTNTLDAMYGYYLSILFNLGTDISQVEGSGNENFRIIPTNSFPTTQSEVQQTWAALYTGIYRANDFLERISNKIGSYTTTDKKLATLYIAEARALRGMFYFELVRRFGNVVLMTSTQMSNQNPATYVQSAPEKVYEYIEDDLLYACDILPYATDDQYRESNDYRFSKGAALGLLTKVYATWAGYPVKDESKWEAAAKTARILVESGKHGLLKDYEQLWKNTCNGTWDPTESLIEISFYSPTVSGNSDPVGRIGKWNGVKTTAIAGVRGSCAANVKVVHTFVLDWREDVSDIRRDLSIANYQYTDTKKSLWVAGASDTDESAAEKDADPTKAQKNKQNYTPAKWDIQKYVTTNSFINNDKSNVNWYFLRYADVLLLYAEALNEWKHGPDAEAYNAINAVRRRGYGNPSNTSACDLPQGLDETSFREAVRKERSYELSFEGHRRQDLIRWGIYYKTVQATAKELGYWWEGTGSPNYSVATYTEEGKHELFPIPQRDMDLCIQFNQNPKW
Question: What does the source list for B1?
Answer: glycan array binding signal (z-score) [1]: -0.539; glycan array binding signal (z-score) [2]: 0.047; glycan array binding signal (z-score) [3]: -0.242; glycan array binding signal (z-score) [4]: -0.46; glycan array binding signal (z-score) [5]: -0.051; glycan array binding signal (z-score) [6]: -0.38; glycan array binding signal (z-score) [7]: -0.445; glycan array binding signal (z-score) [8]: -0.11; glycan array binding signal (z-score) [9]: -0.155; glycan array binding signal (z-score) [10]: -0.479; glycan array binding signal (z-score) [11]: -0.125; glycan array binding signal (z-score) [12]: 1.45; glycan array binding signal (z-score) [13]: 0.244; glycan array binding signal (z-score) [14]: 0.014; glycan array binding signal (z-score) [15]: -0.593; glycan array binding signal (z-score) [16]: 0.185; glycan array binding signal (z-score) (Fuc(a1-2)Gal6S(b1-4)Glc): -0.436; glycan array binding signal (z-score) [17]: -0.278; glycan array binding signal (z-score) (Fuc(a1-2)[Gal(a1-3)]Gal): -0.17; glycan array binding signal (z-score) [18]: -0.242; glycan array binding signal (z-score) [19]: 0.058; glycan array binding signal (z-score) [20]: -0.095; glycan array binding signal (z-score) [21]: -0.405; glycan array binding signal (z-score) [22]: -0.179; glycan array binding signal (z-score) [23]: -0.634; glycan array binding signal (z-score) [24]: -0.16; glycan array binding signal (z-score) [25]: -0.362; glycan array binding signal (z-score) [26]: -0.408; glycan array binding signal (z-score) [27]: -0.397; glycan array binding signal (z-score) [28]: 1.82; glycan array binding signal (z-score) [29]: 0.043; glycan array binding signal (z-score) [30]: 0.576; glycan array binding signal (z-score) [31]: -0.28; glycan array binding signal (z-score) [32]: -0.29; glycan array binding signal (z-score) [33]: -0.287; glycan array binding signal (z-score) [34]: -0.18; glycan array binding signal (z-score) [35]: -0.074
